In PubChem BioAssay AID2451 (National Center for Advancing Translational Sciences (NCATS), 2010):
Several values for one entry are separate records, joined by “and”; a condition that tells them apart may be missing. Equal values may be shown once. In all, about 290,000 compounds went through this assay and about 2,100 (0.72%) were called active. Inconclusive results, whose numbers are uncertain, are shown with a selection of clear calls. Calls follow the shape of the dose curve; as a rule, active = well fitted inhibition curve with a large enough effect; inconclusive = small, poorly fitted or top-dose-only effect, or effect the other way; inactive = flat fitted curve, though single readings scatter. A potency beside an inconclusive call is a rough fit, not a confirmed value.

Target: Fructose-bisphosphate aldolase (Giardia intestinalis (strain ATCC 50803 / WB clone C6)) (UniProt A8B2U2)
Test: qHTS Assay for Inhibitors of Fructose-1,6-bisphosphate Aldolase from Giardia Lamblia; also: nearly all actives have a fitted effect of over 55% in size
Details: purified Giardia FBPA; activity, negative = inhibition: at 59.6 µM (top of the series) unless noted
Procedure, shortened: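 Giardia FBPA (40 nM reagent) was preincubated 10 min at RT with compound (up to 57.5 uM final), then substrate plus GAPDH/TPI/NAD/arsenate coupling system with diaphorase/resazurin was added; resorufin fluorescence (525/598 nm) was read after 20 min.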
% is scaled to controls: 0 for no effect and ±100 for the full control effect; potency is read from the fitted curve at half-maximal effect; tags tell the direction and shape of the fitted curve.

UniProt A8B2U2, sequence (A8B2U2 whole entry, looked up): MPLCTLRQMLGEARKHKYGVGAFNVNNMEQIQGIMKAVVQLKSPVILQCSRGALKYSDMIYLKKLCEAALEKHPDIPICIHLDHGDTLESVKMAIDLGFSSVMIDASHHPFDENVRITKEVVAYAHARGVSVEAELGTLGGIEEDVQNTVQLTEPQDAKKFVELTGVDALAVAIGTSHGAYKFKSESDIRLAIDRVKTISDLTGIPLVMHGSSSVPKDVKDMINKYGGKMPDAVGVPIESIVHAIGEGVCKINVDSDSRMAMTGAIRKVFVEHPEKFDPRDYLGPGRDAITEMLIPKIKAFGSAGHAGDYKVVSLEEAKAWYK

Structure (SMILES)	Potency	activity, negative = inhibition
CCCN1CCC(N(CCc2ccccc2)Cc2ccccc2)CC1	inconclusive: 14.1 µM [inhibitor, partial curve]	
CC1(OC(=O)CCc2ccccc2)C(=O)C=C2C=C(c3ccc(C#N)cc3)N(C3CC3)C=C2C1=O (stereo not drawn)	inconclusive: 354 nM [inhibitor, full curve] and inconclusive: 706 nM [inhibitor, full curve]	
Cc1nc2nc(SCc3ccccc3)[nH]n2c(=O)c1C	inconclusive: 28.2 µM [inhibitor, single point]	
C=CCNC(=S)N1CCN(Cc2ccc3c(c2)OCO3)CC1	active: 7.08 µM	
COC(=O)c1cc(NC(=O)Cc2ccccc2[N+](=O)[O-])ccc1Cl	inconclusive: 19.9 µM [inhibitor, partial curve]	
COc1cc(OC)c(CN2CCCN(C)CC2)cc1Br	inconclusive: 11.2 µM [inhibitor, partial curve]	
CCCCC1=CC2=C(c3ccco3)C(=O)C(C)(OC(=O)c3ccc(OC)cc3)C(=O)C2=CN1C1CC1 (stereo not drawn)	inconclusive: 1.26 µM [inhibitor, partial curve]	
NC(=O)CSc1nnc(-c2cccnc2)n1Cc1ccccc1	inactive	
CCc1nc(NCc2ccccn2)c2oc3ccccc3c2n1	inactive	
Cc1ccc(NC(=O)c2cc(S(=O)(=O)N3CCCCC3)c[nH]2)cc1F	inactive	
CCC1CCCCN1C(=O)c1cc(-c2ccc(Cl)c(Cl)c2)on1 (stereo not drawn)	inactive	
COc1cccc(Nc2c3c(nc4c(-c5ccccc5)c(C)nn24)CCC3)c1	inactive	
O=C(Nc1nc(-c2ccccn2)cs1)c1ccc2c(c1)OCCO2	active: 17.7 µM	
CN(C)c1ccc(C(=S)N2CCN(c3ccccc3)CC2)cc1	inactive	
CC(C)CO/N=C1/C[C@@H](O)[C@@H](O)[C@@H]2[C@@H]3C(=O)N(c4cccc(Oc5ccccc5)c4)C(=O)[C@H]3CC[C@@H]12		inactive: -0.86% [at 12.9 µM]
NC(=S)NN=C(c1ccccc1)c1ccccc1	inconclusive: 20 µM [inhibitor, partial curve]	
COc1ccc(N(C)C(=O)Nc2ccc3c(c2)nnn3C)cc1	inconclusive: 15.8 µM [inhibitor, partial curve]	
O=C(O)c1ccc(NS(=O)(=O)c2ccc3c(c2)C(=O)c2cc(S(=O)(=O)Nc4ccc(C(=O)O)cc4)ccc2-3)cc1	inconclusive: 25.1 µM [inhibitor, single point]	
CCC1Oc2ccc(C)cc2N(CC(=O)N2CCOCC2)C1=O (stereo not drawn)	inactive	
O=C1CSC(=S)N1Cc1cccnc1	inconclusive: 15.8 µM [inhibitor, partial curve]	
CCOC(=O)Cc1csc(NC(=O)CN2CCCCC2)n1	inconclusive: 8.91 µM [inhibitor, partial curve]	
CC1=NN(c2ccccc2)C(=O)C1/C=C1/C(=O)NC(=O)N(c2cc(C)cc(C)c2)C1=O (stereo not drawn)	inconclusive: 19.9 µM [activator, single point]	
c1ccc(Cn2ncc3ccccc32)cc1	inactive	
CCOC(=O)C1=C(Cc2ccc(F)cc2)C(=O)c2ccccc2C1=O	active: 1.77 µM	
O=C(COC(=O)CNS(=O)(=O)c1c(Cl)cccc1Cl)Nc1ccccc1Sc1ccccc1	inactive	

Structure (SMILES)	Potency	activity, negative = inhibition
CN(CCOc1ccc(Br)cc1)CC(O)c1ccccc1 (stereo not drawn)	inconclusive: 25.1 µM [inhibitor, single point]	
O=C(CSc1nnc(-c2n[nH]c3ccccc23)n1-c1ccccc1)Nc1cccc(Cl)c1	inactive	
c1ccc(OCCSc2nnc3sc4ccccc4n23)cc1	active: 17.7 µM	
Nc1nc(N2CCCCC2)nc(N(c2ccccc2)c2ccccc2)n1	inactive	
Cc1cccc(NC(=O)c2ccccc2NC(=O)C2CCCCC2)c1C	inactive	
N#CC1=C2SCN(Cc3ccccc3)CN2C(=O)CC1c1ccccc1F (stereo not drawn)	inconclusive: 1.12 µM [inhibitor, full curve]	
O=C(NCCNC1CCC(c2ccccc2)CC1)c1ccc(F)cc1 (stereo not drawn)	inconclusive: 15.8 µM [inhibitor, partial curve]	
COc1ccc(OCc2cc(C(=O)N(C)Cc3cc(C4CC4)n[nH]3)no2)c(Cl)c1	inconclusive: 31.6 µM [inhibitor, partial curve]	
O=C(N/N=C/c1ccc(OC(=O)c2ccccc2)cc1)c1ccc(CN2CCOCC2)cc1	inactive	
COc1ccc(N2C(=O)CC(N(CCc3ccc(OC)c(OC)c3)C(=S)Nc3ccccc3)C2=O)cc1 (stereo not drawn)	inactive	
Cc1ccc2cc(/C=N/NC(=O)[C@H]3C[C@@H]3c3ccccc3)c(Cl)nc2c1	inactive	
Cc1[nH]c2ccc(OC(F)(F)F)cc2c1CCNCc1cccc([N+](=O)[O-])c1	inconclusive: 15.8 µM [inhibitor, partial curve]	
CC1CCN(CCOCCOc2ccc(Cl)cc2Br)CC1	inconclusive: 7.06 µM [inhibitor, full curve]	
O=C(N/N=C\C=C\c1ccco1)C1COc2ccccc2O1 (stereo not drawn)	inconclusive: 17.7 µM [inhibitor, single point]	
C=CCN1C=C2C(=O)C(C)(OC(=O)c3cnc4ccccc4n3)C(=O)C=C2C=C1/C=C/COC (stereo not drawn)	inconclusive: 2.81 µM [inhibitor, partial curve]	
CCOc1ccc(CN2CCN(Cc3c(C)nn(CC)c3C)CC2CCO)cc1 (stereo not drawn)	inactive	
CCOc1ccc(NC(=O)C2CCN(C(=O)NC3CCCCC3)CC2)cc1	inactive	
Cn1ncc(Cl)c1C(=O)N/N=C/c1ccccn1	inconclusive: 31.5 µM [inhibitor, single point]	
Cc1ccc(-c2cc(C(=O)NC3=NCCS3)c3cc(Br)ccc3n2)o1	inactive	
Cc1ccc(NC(=O)CSc2n[nH]c(-c3ccncc3)n2)c(C)c1	inconclusive: 8.91 µM [inhibitor, single point]	
O=C(C1=C[C@H](c2ccc(Br)cc2)C[C@H](OCCCCO)O1)N1CCN(Cc2ccc3c(c2)OCO3)CC1	inactive	
CCNC(=S)N1CCN(Cc2ccccc2)CC1	inconclusive: 15.8 µM [inhibitor, partial curve]	
Cc1cc(C)nc(Nc2ccc(O)cc2)n1		inconclusive: 49.4% [activator]
O=C(Cc1cn2ccsc2n1)Nc1nc2c(s1)CN(Cc1ccccc1)CC2	inconclusive: 15.8 µM [inhibitor, single point]	
COCCNC(=S)NN=C1CCC(c2ccccc2)CC1 (stereo not drawn)	inconclusive: 6.29 µM [inhibitor, full curve, poor fit]	

Structure (SMILES)	Potency	activity, negative = inhibition
O=C(OC1Cc2c(O)cc(O)cc2OC1c1cc(O)c(O)c(O)c1-c1c(C2Oc3cc(O)cc(O)c3CC2OC(=O)c2cc(O)c(O)c(O)c2)cc(O)c(O)c1O)c1cc(O)c(O)c(O)c1 (stereo not drawn)	inconclusive: 15.8 µM [inhibitor, single point]	
O=C(Cc1ccc(-n2c(=S)[nH]c3ccccc3c2=O)cc1)N1CCN(c2ccccc2)CC1	inactive	
c1ccc(-c2csc(NNC3=NCCCCC3)n2)cc1	inconclusive: 14.1 µM [inhibitor, partial curve]	
O=C(c1ccco1)N1CCN(CC(=O)N2c3ccccc3CCc3ccccc32)CC1	inconclusive: 22.3 µM [inhibitor, single point]	
COC(=O)c1ccc(OCCCCN(C)Cc2ccccc2)cc1	inconclusive: 14.1 µM [inhibitor, partial curve]	
CC(C)c1nnc(NC(=O)c2cc3ccccc3o2)s1		inconclusive: 42.6% [activator]
Cc1ccc(N=Cc2c(O)ccc3ccccc23)cc1F	inconclusive: 6.29 µM [inhibitor, partial curve]	
Cc1c(NC(=S)NC(=O)c2cccc(Cl)c2)c(=O)n(-c2ccccc2)n1C	active: 12.6 µM	
COc1ccc(NC(=S)SC)cc1OC	inconclusive: 28.1 µM [inhibitor, single point]	
Cc1cc2nc3n(c2cc1C)CCCN3	inconclusive: 14.1 µM [inhibitor, partial curve]	
Cc1nc2ccccc2oc1=O	inactive	
CCCCn1nnc(NC(=O)c2sc3cc(Cl)ccc3c2Cl)n1	inconclusive: 22.3 µM [activator, partial curve]	
COC1=C(Nc2ccc(O)cc2)C(=O)c2ccccc2C1=O	inconclusive: 11.2 µM [inhibitor, partial curve]	
Cc1ccc2c(c1)C(O)(c1c(C)[nH]c3ccccc13)C(=O)N2 (stereo not drawn)	inconclusive: 15.8 µM [inhibitor, single point]	
CCN(CC)c1nc(N)nc(NS(=O)(=O)c2ccc(Cl)cc2)n1	inconclusive: 17.7 µM [inhibitor, partial curve]	
CCc1ccc(S(=O)(=O)/N=C2\C=C(Nc3ccc(C(=O)O)cc3)C(=O)c3ccccc32)cc1	active: 0.447 µM	
Oc1ccc2ccccc2c1C=NC12CN3CCN(CN(C3)C1)C2	active: 14.1 µM	
CC(=O)OC1COC(n2c(O)c(N=NC(N)=S)c3ccccc32)C(OC(C)=O)C1OC(C)=O (stereo not drawn)	inconclusive: 12.6 µM [inhibitor, partial curve]	
c1ccc(-c2nc3nc4ccccc4nc3n2Cc2ccco2)cc1	inactive	
Cc1cc(C(C)(C)C)ccc1OCCN1CCCC1	inactive	
Cc1ccc(S(=O)(=O)NN2C(=O)/C(=C/c3cccnc3)SC2=S)cc1	inconclusive: 39.8 µM [inhibitor, partial curve]	
CCCCC1CN2CCc3c([nH]c4ccccc34)C2(C)C1 (stereo not drawn)	inconclusive: 28.2 µM [inhibitor, partial curve]	
CC1=C(C#N)C(=O)NC(=O)/C1=C\c1ccc(-c2ccc(C)cc2[N+](=O)[O-])o1	inconclusive: 15.8 µM [inhibitor, partial curve]	
